For 41 variants, self-cleavage results are on record in the RNAGym collection of RNA variant scans (doi:10.7554/elife.90254).

Read counts are not given, so values of variants with three or more changes are uncertain.

B1: OR4K15 (parent)
chain: GUUAACGGUCAUAGGCCAUGGAAACUAGGAGCACCAUUUCGCUGCCAGUGAAGAAAUGAACAAAGAAAAUCUGGGCCAGGCAGGCAUCAAAAGAAAUAGUCUUGCGCUCAACCAGAAAGUCUGUAAUCAUUUUAAGGGUA

This series covers variants of B1. Kind of series: self-cleavage, relative activity (ratio to wild type); higher = more cleavage; in vitro, sequencing; the parent is a self-cleaving ribozyme.
As for GUUAACGGUCAUAGGCCAUGGAAACUAGGAGCACCAUUUCGCUGCCAGUGAAGAAAUGAACAAUGAAAAUCUGGGCCAGGCAGGCAUCAAAAGAAAUAGUCCUGCGCUCAACCAGAAAGUCUGUAAUCAUCUUAAGGGUA, the self-cleavage worked out at 2.33.
GUUAACGGUCAUAGGCCAUGGAAACUAGGAGCACCAUUUCGCUGCCAGUGAAGAAAUGAACAAAAAAAAUCUGGGCCAGGCAGGUAUCAAAAGAGAUAGUCUUGCGCCCAACCAGAAAGUCUGUAAUCAUUUUAAGGGUA: the self-cleavage is 0.01.
Consider GUUAACGGUCAUAGGCCAUGGAAACUAGGAGCACCAUUUCGCUGCCAGUGAAGAAAUGAACAAACAAAAUCUGGGCCAGGCAGGCAUCAAAAGAAAAUGUCUUGCGCUCAACCGGAAAGACUGUAAUCACUUUAAGGGUA, for which the self-cleavage was 0.71.
In the case of GUUAACGGUCAUAGGCCAUGGAAACUAGGAGCACCAUUUCGCUGCCAGUGAAGAAAUGAACAAAGGAAAUCUGGGCCAGGCAGGCGUCAAAAGAAAUAGUCUUGCGCUCAACCAGAAGGUCUGUAAUCAUUUUAAGGGUA, the self-cleavage was 0.55.
Turning to GUUAACGGUCAUAGGCCAUGGAAACUAGGAGCACCAUUUCGCUGCCAGUGAAGAAAUGAACAAGGAAAAUCUGGGCCAGGCAGGCAUCAAAAGAAGUAGUCUUGCGCUCAACCAGAAAGUCUGUAGUCAUUUUAAGGGUA, the self-cleavage was 1.12.
To GUUAACGGUCAUAGGCCAUGGAAACUAGGAGCACCAUUUCGCUGCCAGUGAAGAAAUGAACAAUGAAAAUCUGGGCCAGGCAGGCAUCGAAAGAAAUAGUCUUGCGCUCAACCAGAAAGUCUGCAAUCACUUUAAGGGUA belongs 0.22; to GUUAACGGUCAUAGGCCAUGGAAACUAGGAGCACCAUUUCGCUGCCAGUGAAGAAAUGAACAAGGAAAAUCUGGGCCAGGCAGGCAUCAAAAGAAACGGUCUUGCGCUCAACCAGAAAGUCUGUAAUCAUUUUAAGGGUA, 1.23.
On to GUUAACGGUCAUAGGCCAUGGAAACUAGGAGCACCAUUUCGCUGCCAGUGAAGAAAUGAACAAUGAAAAUCUGGGCCAGGCAGGCACCAAAAGAAAUAGCCUUGCGCUCAACCAGAAAGUCUGUAAUCAUUUUAAGGGUA, for which the self-cleavage was determined as 2.85.
GUUAACGGUCAUAGGCCAUGGAAACUAGGAGCACCAUUUCGCUGCCAGUGAAGAAAUGAACAAGGAAAAUCUGAGCCAGGCAGGCACCAAAAGAAAUUGUCUUGCGCUCAACCAGAAGGUCUGUAAUCAUUUUAAGGGUA: the self-cleavage came to 0.11.
In the case of GUUAACGGUCAUAGGCCAUGGAAACUAGGAGCACCAUUUCGCUGCCAGUGAAGAAAUGAACAAUGAAAAUCUGGGCCAGGCAGGCACCAAAAGAAAUAGUCUUGCGCUCAGCCAGGAAGUCUGUAAUCAUUUUAAGGGUA it was 0.01.
GUUAACGGUCAUAGGCCAUGGAAACUAGGAGCACCAUUUCGCUGCCAGUGAAGAAAUGAACAAAGGAAGUCUGGGCCAGGCAGGCAUCAAAAGAAAUAGUCUUGCGCUCAACCAGAAAGUCAGUAAUCAUUUUAAGGGUA: the self-cleavage amounted to 0.55.
Take GUUAACGGUCAUAGGCCAUGGAAACUAGGAGCACCAUUUCGCUGCCAGUGAAGAAAUGAACAAAGCAAAUCUGGGCCAGGCUGGCAUCAAAAGAAAUAGUCUUGCGCUCAACCAGAAAGUCUGUAAUCAUUCUAAGGGUA: the self-cleavage is 0.21.
Take GUUAACGGUCAUAGGCCAUGGAAACUAGGAGCACCAUUUCGCUGCCAGUGAAGAAAUGAACAAGGAAAAUCUGGGCCAGGCAGGCAUCAAAAGAAAUAGUCUUGCGCUCAACCAGAAAGUCAGUAAUCAUUUUAAGGGCA: the self-cleavage stood at 0.25.
Take GUUAACGGUCAUAGGCCAUGGAAACUAGGAGCACCAUUUCGCUGCCAGUGAAGAAAUGAACAAAUAAAAUCUGGGCCAGGCAGGCAUCAAAAGAAAUAGUCCUGCGCUCAGCCAGAAAGUCUGUAAUCAUUUUAAGGGUA: the self-cleavage was determined as 0.
Consider GUUAACGGUCAUAGGCCAUGGAAACUAGGAGCACCAUUUCGCUGCCAGUGAAGAAAUGAACAAGGAAAAUCUGAGCCAGGCAGGCAUCAAAAGAAAUAGUCCUGCGCUCAACCAGAAAGUCUGUAAUCAUUUUAAGGGUA, for which the self-cleavage came to 0.31.
As for GUUAACGGUCAUAGGCCAUGGAAACUAGGAGCACCAUUUCGCUGCCAGUGAAGAAAUGAACAAGGAAAAUCUGGGCCAGGCAGGCAUCAAAAGAAAUAGUCUUGCGCUCAACCAGAAAGUCCGUAAUCAUCUUAAGGGUA, the self-cleavage is 1.27.
For GUUAACGGUCAUAGGCCAUGGAAACUAGGAGCACCAUUUCGCUGCCAGUGAAGAAAUGAACAAAGCAAAUCUGGGCCAGGCAGGCAUCAAGAGAAAUAGUCCUGCGCUCAACCAGAAAGUCUGUAAUCAUUUUAAGGGUA, the self-cleavage worked out at 2.3.
Take GUUAACGGUCAUAGGCCAUGGAAACUAGGAGCACCAUUUCGCUGCCAGUGAAGAAAUGAACAAGGAAAAUCUGGGCCAGGCAGGCAUCAAAAGAAAUAGUCUUACGCUCAACCAGAAAGUCUGUAAUCAUUUUAGGGGUA: the self-cleavage was 0.01.
With GUUAACGGUCAUAGGCCAUGGAAACUAGGAGCACCAUUUCGCUGCCAGUGAAGAAAUGAACAAUGAAAAUCUGGGCCAGGCAGGCAUCAAAGGAAAUAGUCUUGCGCUCAACCAGAAAGUCUGUAAUCAUUCUAAGGGUA, the self-cleavage was found to be 0.45.
Consider GUUAACGGUCAUAGGCCAUGGAAACUAGGAGCACCAUUUCGCUGCCAGUGAAGAAAUGAACAAGGAAAAUCUGGGCCAGGCAGGCAUCAAAAGAAAUAGUCUUGCGCUCAACCAGAAAGUCUGUAACCAUUUUGAGGGUA, for which the self-cleavage was determined as 1.07.
To GUUAACGGUCAUAGGCCAUGGAAACUAGGAGCACCAUUUCGCUGCCAGUGAAGAAAUGAACAAGGAAAAUCUGGGCCAGGCAGGCAUCAAAAGAAAUAGUCUUGCGCUCAACCAGGAAGUCUGUAAUCACUUUAAGGGUA belongs 0.3; to GUUAACGGUCAUAGGCCAUGGAAACUAGGAGCACCAUUUCGCUGCCAGUGAAGAAAUGAACAAGGAAAAUCUGGGCCAGGCAGGCAUCAAAAGAAAUAGUCUUGCGCCCAACCAGAAAGUCUGUAAUCAUUUUAAGGGCA, 0.01; to GUUAACGGUCAUAGGCCAUGGAAACUAGGAGCACCAUUUCGCUGCCAGUGAAGAAAUGAACAAGGAAAAUCUGGGCCAGGCAGGUAUCAAAAGAAAUAGCCUUGCGCUCAACCAGAAAGUCUGUAAUCAUUUUAAGGGUA, 1.57.
As to GUUAACGGUCAUAGGCCAUGGAAACUAGGAGCACCAUUUCGCUGCCAGUGAAGAAAUGAACAAGGAAAAUCUGGGCCAGGCAGGCAUCAAAAGAAAUAGUCUCGCGCCCAACCAGAAAGUCUGUAACCGUUUUAAGGGUA, the self-cleavage turned out to be 0.
In the case of GUUAACGGUCAUAGGCCAUGGAAACUAGGAGCACCAUUUCGCUGCCAGUGAAGAAAUGAACAAAGCAAAUCUGAGCCAGGCAGGCAUCAAAAGAAAUAGUCUUGCGCUCAACCAGAAAGUCCGUAAUCAUUUUAAGGGUA, the self-cleavage turned out to be 0.14.
In the case of GUUAACGGUCAUAGGCCAUGGAAACUAGGAGCACCAUUUCGCUGCCAGUGAAGAAAUGAACAAAGGAAGUCUGGGCCAGGCAGGCAUCAAAAGAAAUAGUCUUGCGCUCAACCAGAAAGUCCGCAAUCAUUUUAAGGGUA it was 1.24; in that of GUUAACGGUCAUAGGCCAUGGAAACUAGGAGCACCAUUUCGCUGCCAGUGAAGAAAUGAACAAUGAAAAUCUGGGCCAGGCAGGCAUCAAAAGAAAUAGUCUUGCGCUCAGCCAGAAAGUCUGUAAUCGUUUUAAGGGUA, 0.01.
In the case of GUUAACGGUCAUAGGCCAUGGAAACUAGGAGCACCAUUUCGCUGCCAGUGAAGAAAUGAACAAGGAAAACCUUGGCCAGGCAGGCAUCAAAAGAAAUAGCCUUGCGCUCAACCAGAAAGUCUGUAAUCAUUUUAAGGGUA it was 0.16; in that of GUUAACGGUCAUAGGCCAUGGAAACUAGGAGCACCAUUUCGCUGCCAGUGAAGAAAUGAACAAUGAAAAUCUGGGCCAGGCAGGCAUCAAAGGAAAUAGUCUUGCGCUCAACCAGAAAGCCUGUAAUCAUUUUAAGGGUA, 0.59; in that of GUUAACGGUCAUAGGCCAUGGAAACUAGGAGCACCAUUUCGCUGCCAGUGAAGAAAUGAACAAGGAAAAUCUGGGCCAGGCAGGUAUCAAAAGAAAUAGUCUUGCGCUCAGCCAGAAAGUCUGUAAUCAUUUUAAGGGUA, 0.03.
Take GUUAACGGUCAUAGGCCAUGGAAACUAGGAGCACCAUUUCGCUGCCAGUGAAGAAAUGAACAAGGAAAAUCUGGGCCAGGCAGGCAUCAAAAGAAAUAGCCUUGCGCUCAACCUGAAAGUCCGUAAUCAUUUUAAGGGUA: the self-cleavage amounted to 0.23.
On to GUUAACGGUCAUAGGCCAUGGAAACUAGGAGCACCAUUUCGCUGCCAGUGAAGAAAUGAACAAGGAAAAUCUGGGCCAGGCAGGCAUCAAAAGAGUUAGUCUUGCGCUCAACCAGAAAGUCUGUAAUCAUUUCAAGGGUA, for which the self-cleavage was determined as 1.24.
Consider GUUAACGGUCAUAGGCCAUGGAAACUAGGAGCACCAUUUCGCUGCCAGUGAAGAAAUGAACAAAGGAAAUCUGGGCCAGGCAGGCAUCGAAAGAAAUAGUCUUGCGCUCGACCAGAAAGUCUGUAUUCAUUUUAAGGGUA, for which the self-cleavage is 0.12.
With GUUAACGGUCAUAGGCCAUGGAAACUAGGAGCACCAUUUCGCUGCCAGUGAAGAAAUGAACAAAGCAAAUCUGGGCCGGGCAGGCAUCUAAAGAGAUAGUCUUGCGCUCAACCAGAAGGUCUGUAAUCAUUUUAAGGGUA, the self-cleavage came out at 0.11.
In the case of GUUAACGGUCAUAGGCCAUGGAAACUAGGAGCACCAUUUCGCUGCCAGUGAAGAAAUGAACAAAGCAAAUCUGGGCCAGGCAGGCAUCAAAGGGAAUAGUCUUGCGCUCAACCAGAAAGUCUGUAAUCAUUUUAAGGGUA it was 1.62.
GUUAACGGUCAUAGGCCAUGGAAACUAGGAGCACCAUUUCGCUGCCAGUGAAGAAAUGAACAAGGAAAAUCAGGGCCAGGCAGGCAUCAAAAGAACUAGUCUUGCGCUCAACCAGAAAGUCUGUAACCAUCUUAAGGGUA: the self-cleavage came out at 0.07.
Turning to GUUAACGGUCAUAGGCCAUGGAAACUAGGAGCACCAUUUCGCUGCCAGUGAAGAAAUGAACAAAGGAGAUCUGGGCCAGGCAGGCACCAAAAGAAAUAGUCUUGCGCUCAACCAGAAAGUCUGUAAUCAUUAUAAGGGUA, the self-cleavage was found to be 1.46.
Consider GUUAACGGUCAUAGGCCAUGGAAACUAGGAGCACCAUUUCGCUGCCAGUGAAGAAAUGAACAAGGAAAAUCUGGGCCAGGCAGGCAUCAAAAGAAAUAGUCUUGCACUCAACCAGAGAGUCUGUAAUCAUUUUAAGGGUA, for which the self-cleavage came to 0.02.
For GUUAACGGUCAUAGGCCAUGGAAACUAGGAGCACCAUUUCGCUGCCAGUGAAGAAAUGAACAAAGCAAAUCUGGGCCAGGCAGGCAUCAAAAGAAGUAGUCUUGCGCUCAGCCAGAAAGUCUGUAAUCAUUUUAGGGGUA, the self-cleavage was found to be 0.02.
For the variant GUUAACGGUCAUAGGCCAUGGAAACUAGGAGCACCAUUUCGCUGCCAGUGAAGAAAUGAACAAAGGGAGUCUGGGCCAGGCAGGCAUCAAAAGAAAUAGCCUUGCGCUCAACCAGAAAGUCUGUAAUCAUCUUAAGGGUA, the self-cleavage was 1.39.
Turning to GUUAACGGUCAUAGGCCAUGGAAACUAGGAGCACCAUUUCGCUGCCAGUGAAGAAAUGAACAAGGAAAAUCUGGGCCAGGCAGGCAUCAAAAGAAAUAGUCCUGCGCUCAACCAGAAAGUCCGUAAUCAUUUUAAGGGUA, the self-cleavage was determined as 1.74.
